Assay results: PubChem BioAssay AID1745853 (National Center for Advancing Translational Sciences (NCATS), 2022)
Several values for one entry are separate records, joined by “and”; a condition that tells them apart may be missing. Equal entries are not always repeated. This is one part of the list. Further columns of the screen follow, without active or inactive calls.

How the values were obtained:
Assay in all cases: Primary Screen for Target Class Profiling of Small Molecule Inhibitors of Methyltransferases
[1] = biological target: Glycine N-methyltransferase (Homo sapiens) (UniProt Q14749); conditions: purified enzyme, MTase-Glo SAH luminescence; measured here: GNMT inhibition; at 40 µM; stronger effect = lower value
Procedure, shortened: (§1)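 Each enzyme was reacted with SAM and its substrate, with compounds tested once at 40 uM; SAH formed was read by MTase-Glo luminescence.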

[2] = biological target: Guanidinoacetate N-methyltransferase (Homo sapiens) (UniProt Q14353); conditions: purified enzyme, MTase-Glo SAH luminescence; measured here: GAMT inhibition; at 40 µM; stronger effect = lower value
Procedure, shortened: as §1

[3] = biological target: Histamine N-methyltransferase (Homo sapiens) (UniProt P50135); conditions: purified enzyme, MTase-Glo SAH luminescence; measured here: HNMT inhibition; at 40 µM; stronger effect = lower value
Procedure, shortened: as §1

[4] = biological target: Nicotinamide N-methyltransferase (Homo sapiens) (UniProt P40261); conditions: purified enzyme, MTase-Glo SAH luminescence; measured here: NNMT inhibition; at 40 µM; stronger effect = lower value
Procedure, shortened: as §1

[5] = biological target: Phenylethanolamine N-methyltransferase (Homo sapiens) (UniProt P11086); conditions: purified enzyme, MTase-Glo SAH luminescence; measured here: PNMT inhibition; at 40 µM; stronger effect = lower value
Procedure, shortened: as §1
On the % scale 0 is the no-effect control and ±100 the full control effect.

SMILES	activity change, negative = inhibition [1] [%]	activity change, negative = inhibition [2]	activity change, negative = inhibition [3] [%]	activity change, negative = inhibition [4]	activity change, negative = inhibition [5]
Cc1ccc(NC(=O)Cn2c(=O)oc3cc(S(=O)(=O)N4CCCC4)ccc32)c(Cl)c1	1.06	-1.94%	9.15	13.9%	0.339%
CCN(CC)CCNC(=O)c1cc(S(C)(=O)=O)ccc1OC	12.2	12.1%	7.58	-7.03%	0.962%
CC1CC(C)CN(S(=O)(=O)c2ccc3c(c2)oc(=O)n3CC(=O)N2CCc3ccccc32)C1 (centres undefined)	1.81	-1.74%	6.85	-0.846%	-7.65%
O=C(Nc1ccccc1Cl)N1Cc2c(sc3c2CCCC3)-n2cccc2C1c1ccccc1 (centres undefined)	2.1	0%	2.6	1.5%	4.41%
CCO[C@@H]1OC(=O)C[C@@H]1NC(=O)[C@@H]1CCCN1C(=O)[C@@H](NC(=O)c1ccc(N)c(Cl)c1)C(C)(C)C	3.29	-3.13%	-0.075	-15.2%	-5.74%
O=C(NCCc1ccccn1)c1cccnc1OC1CCNCC1	-1.46	-4.17%	-4.28	-4.45%	-6.93%
O=C(CCCN1CC=C(n2c(=O)[nH]c3ccccc32)CC1)c1ccc(F)cc1	-25.9	-0.579%	2.34	-17.5%	-20.2%
COc1cccc(NC(=O)c2cc3n(n2)CC(C)(C(=O)NC2CCCCCC2)N(C)C3=O)c1 (centres undefined)	2.07	0%	4.3	2.69%	2.17%
C[C@@H](Nc1ncnc2[nH]c(-c3ccc(O)cc3)cc12)c1ccccc1	-34.1	0.587%	-41.4	-39.6%	-47%
CC/C=C\CCO[C@@H]1O[C@H](CO[C@@H]2OC[C@H](O)[C@H](O)[C@H]2O)[C@@H](O)[C@H](O)[C@H]1O	1.63	3.82%	6.17	-9.5%	-3.46%
C=Cc1ccc(CSc2nnc3n(CC(C)C)c(=O)c4ccccc4n23)cc1	-2.43	1.45%	5.44	-8.31%	5.01%
CC(CN1C(=O)c2ccc(-c3ccco3)n2CC1(C)C(=O)NC1CCCCCCC1)c1ccccc1 (centres undefined)	-7.21	2.34%	-1.68	-17.2%	-5.01%
COC1=CC(=O)C[C@@H](C)[C@@]12Oc1c(Cl)c(OC)cc(OC)c1C2=O	1.23	6.13%	9.76	-8.4%	-0.757%
CCc1ccc(-c2cc3n(n2)CC(C)(C(=O)NC2CCCCC2)N(Cc2cccs2)C3=O)cc1 (centres undefined)	1.47	6.8%	-1.26	-0.453%	-2.52%
Cc1ccc(CCCO)c(NCc2ccc3nc(NCCCN4CCOCC4)n(Cc4nc(C)ccc4O)c3c2)c1	-1.77	23.2%	-9.34	-2.74%	7.83%
CCn1c(=O)n(CC)c2cc(S(=O)(=O)N3CCC(Cc4ccccc4)CC3)ccc21	0.862	2.53%	4.04	-5.83%	7.3%
c1ccc(CNc2ncc(CN3CCC4(CCNCC4)C3)cn2)cc1	-6.86	-7.22%	-10.1	-15.7%	-10.9%
Cc1cc2c(cc1S(=O)(=O)Nc1ccc(C(C)C)cc1)n(C)c(=O)n2C	2.91	0%	0.319	-9.29%	-0.514%
Fc1ccc(N2CCN(c3nc4ccccc4c4nc(-c5ccccc5)nn34)CC2)cc1		8.28%		-3.62%	3.17%
CC1OC(OC2C(OC(=O)[C@]34CCC(C)(C)C[C@H]3C3=CCC5[C@@]6(C)CC[C@H](OC7OC(C(=O)O)C(O)C(O)C7O)C(C)(C)C6CC[C@@]5(C)[C@]3(C)CC4O)OC(CO)C2O)C(O)C(O)C1OC1OCC(O)C(O)C1O (some centres undefined)	1.71	5.27%	10.1	-10.6%	1.58%

SMILES	activity change, negative = inhibition [1] [%]	activity change, negative = inhibition [2]	activity change, negative = inhibition [3] [%]	activity change, negative = inhibition [4]	activity change, negative = inhibition [5]
CC1(C(=O)NC2CCCC2)Cn2c(ccc2-c2ccco2)C(=O)N1Cc1ccc(F)cc1 (centres undefined)	-6.78	-1.61%	0.747	-7.8%	-2.71%
Cc1c(C(=O)N2CCC(C(=O)N3CCN(c4ccccc4)CC3)CC2)oc2cc3sc(N(C)C)nc3cc12	-5.28	4.87%	3	4.28%	-0.551%
CC(=O)/C=C/C1(O)C(C)CC(O[C@@H]2O[C@H](CO)[C@@H](O)[C@H](O)[C@H]2O)CC1(C)C (some centres undefined)	16.5	5.4%	11.2	-7.84%	8.3%
C=CC/C=C\C/C=C\CCCCCCCc1cccc(O)c1C(=O)O	-11.5	-23.2%	0.987	-38.3%	-9.07%
COc1ccc(CN2C(=O)c3cc(-c4ccc(C(C)C)cc4)nn3CC2(C)C(=O)NCCC(C)C)cc1 (centres undefined)	2.36	0%	3.13	3.54%	-1.82%
CCCn1c(=O)c2ccc(C(=O)NCC(C)C)cc2n2c(=O)n(CC(=O)c3ccc(C)cc3)nc12	2.36	0%	6.08	3.56%	3.91%
CC1CCN(S(=O)(=O)c2ccc3c(c2)oc(=O)n3CC(=O)N2CCN(C3CCCCC3)CC2)CC1	-1.16	0%	-5.11	3.73%	0.569%
C=C1CC2[C@@]3(C)C=CC(=O)C(C)(C)C3=C(O)C(=O)[C@@]2(C)C2(C(=O)OC)C(=O)C(C)OC(=O)[C@@]12C (some centres undefined)	-8.73	-6.71%	3.48	-17.5%	-0.79%
O=C(NCc1ccc(Cl)cc1)c1ccc2c(=O)nc3c(-c4ccc(F)cc4)n[nH]n3c2c1	-10.7	0.734%	0.197	-8.62%	-2.63%
COc1ccc(-c2cc3n(n2)CC(C)(C(=O)NCc2ccccc2)N(c2ccc(F)cc2)C3=O)cc1 (centres undefined)	1.55	2.67%	5.51	-0.541%	-0.378%
CCN1CCC(N2CC[C@H](CO)[C@H](N(C)C)C2)CC1	-1.09	-1.24%	-1.47	-2.94%	2.07%
C=C1C(=O)O[C@@H]2C(OC(=O)/C(C)=C\C)/C(C)=C\C(=O)/C=C(\C)C[C@H](O)[C@@H]12 (some centres undefined)	-4.73	-12%	6.32	-20.6%	-2.37%
COc1ccccc1CNS(=O)(=O)c1ccc2[nH]c(=O)[nH]c2c1	11.6	2.61%	9.62	0.665%	0.369%
OC1CCOC2(CCN(Cc3ccc4cc[nH]c4c3)CC2)C1 (centres undefined)	-5.04	-6.49%	-15.7	-4.82%	-4.12%
COc1nc(C)nc(Cl)c1NC1=NCCN1	2.87	8.93%	4.39	-4.25%	1.62%
Cc1ccc(SC2CCN(Cc3nc(CCc4ccccc4)no3)CC2)cc1	-7.13	-4.79%	-3.99	-6.08%	-6.72%
CCOC(=O)c1cc2n(n1)CC(C)(C(=O)NCCC(C)C)N(c1cc(C)ccc1OC)C2=O (centres undefined)	3.58	1.34%	5.32	9.04%	1.3%
CCCn1c(=O)c2ccc(Cl)cc2n2c(=O)n(CC(=O)c3ccc(OCC)cc3)nc12	-1.13	-0.243%	5.38	0.338%	-0.001%
COc1cccc(CN2C(=O)c3ccc(-c4ccco4)n3CC2(C)C(=O)NC2CCCCCC2)c1 (centres undefined)	-0.198	0%	6.2	-7.73%	1.83%
O=C1CCc2cc(S(=O)(=O)Nc3cccc(Cl)c3)ccc2N1		4.25%		-11%	-7.64%

SMILES	activity change, negative = inhibition [1] [%]	activity change, negative = inhibition [2]	activity change, negative = inhibition [3] [%]	activity change, negative = inhibition [4]	activity change, negative = inhibition [5]
Cc1noc(C)c1CC(=O)N(C)C1CCc2nnc(C)n2CC1 (centres undefined)	-0.78	0.204%	-0.035	-2.93%	4.07%
COc1cccc(CN2CCC3(CCC3OC)CC2)c1 (centres undefined)	-2.57	-2.46%	-2.37	1.41%	-0.574%
CCCCS(=O)(=O)N[C@@H](Cc1ccc(OCCCCC2CCNCC2)cc1)C(=O)O	4.75	4.43% and -6.39%	13	-4.15% and -17.1%	8.49% and -10.7%
COc1ccc(CC2(CO)CCNCC2)cc1	-0.771	4.94%	4.02	-4.97%	11.8%
CC(=O)Nc1c2n(c3ccc(F)cc13)CC(C)(C(=O)NC1CCCCC1)N(Cc1ccccn1)C2=O (centres undefined)	-2.6	-4.65%	-8.82	-3.52%	-0.219%
CC1(C(=O)NCc2ccc(F)cc2)Cn2cnc(C(=O)NCc3cccc(Cl)c3)c2C(=O)N1C1CC1 (centres undefined)	-11.2	-2.07%	-6.29	-8.83%	-8.81%
NCCS(=O)(=O)O	4.38	10.8%	9.28	-6.83%	1.33%
O=C(Nc1cc(C(F)(F)F)ccc1N1CCCCC1)c1ccncc1	-3.21	1.47%	3.6	-18.3%	-12.5%
Cc1ccc(N2CCN(S(=O)(=O)c3ccc4[nH]c(=O)[nH]c4c3)CC2)c(C)c1	11.8	1.89%	9.57	-1.23%	4.7%
COc1cc2c(cc1OC)/C(=C/c1ccc(O)cc1)C(=O)N2		3.55%		-30.4%	1.51%
Cc1nnc(C(C)C)n1C1CC2CCC(C1)N2CC[C@H](NC(=O)C1CCC(F)(F)CC1)c1ccccc1 (some centres undefined)	-1.02	4.5% and 0.415%	11.1	-13.8% and -17.7%	2% and 2.57%
CC1(C(=O)NC2CCCCC2)Cn2c(ccc2-c2ccccc2)C(=O)N1Cc1cccc(F)c1 (centres undefined)	7.21	0%	6.95	0.387%	3.58%
COc1ccc(OC)c(-c2nnc3n(Cc4ccccc4)c(=O)c4ccccc4n23)c1	0.64	16.1%	3.31	-0.828%	0.555%
Cc1ccc(CN2C(=O)c3cc4sccc4n3CC2(C)C(=O)NC2CCCC2)cc1 (centres undefined)	-3.24	1.11%	-5.14	-9.88%	-7.32%
COc1c2cc(c(O)c1OC)CCCCC(O)CCc1ccc(O)c-2c1 (centres undefined)	0	-8.02%	-9.67	-21.6%	-7.61%
N#CC(C#N)=C(N)/C(C#N)=C/c1ccc(O)cc1	-9.57	9.71%	6.06	-3.79%	-1.38%
COC(=O)CC[C@@H](C)C1CCC2C3CCC4C[C@H](OC(C)=O)CCC4(C)C3C[C@H](O)C21C (some centres undefined)	-0.045	-14.9%	12.6	-12.4%	-2.15%
C[C@@H](NC(=O)C1=C[C@@H](NC(=O)Nc2ccccc2Br)[C@@H](O)[C@H](O)C1)C(N)=O	-3.7	-3.19%	-1.68	-9.68%	-7.93%
CC1=CC2=C(C)C(=O)[C@](C)(O)[C@H](O)C2=CO1	2.19	-0.584%	0.938	-9.98%	1.38%
